Test [1] relates to HSkMC (human skeletal muscle cells). As to the kind of experiment: cytotoxicity call (relative viability < 0.9). To be noted: 10 µM.
Test [2] relates to HepG2. The experiment in a line: cytotoxicity call (relative viability < 0.9). The conditions noted are these: 10 µM.
The test system of test [3] is S. aureus RN4220. As to the kind of experiment: growth inhibition call (relative growth <= 0.2). The conditions noted are these: 50 µM.

Structures are written as SMILES. Some of the results follow.

As to `C[C@@H]1CN([C@@H](C)CO)C(=O)Cc2cc(NC(=O)Cc3ccccc3)ccc2O[C@H]1CN(C)S(=O)(=O)c1cccs1`, the cytotoxicity call in test [1] and in test [2] was “inactive” in each case. Besides, the growth inhibition call in test [3] was “inactive”.
On to `Cc1ccc(S(=O)(=O)N2C[C@@H](O)COC[C@@H]3O[C@H](CC(=O)N[C@H]4CCN(Cc5ccccc5)C4)CC[C@H]32)cc1`, for which the cytotoxicity call in test [1] and in test [2] was “inactive” throughout. Further, the growth inhibition call in test [3] was “inactive”.
`COc1cccc(S(=O)(=O)N(C)C[C@H]2Oc3ncc(C#CCC(C)C)cc3C(=O)N([C@@H](C)CO)C[C@H]2C)c1`: the cytotoxicity call in test [1] and in test [2] was “inactive” in each case. In addition, the growth inhibition call in test [3] was “inactive”.
With `C[C@@H]1CN([C@H](C)CO)C(=O)c2cc(NC(=O)Nc3ccc4c(c3)OCO4)ccc2O[C@@H](C)CCCCO[C@H]1CN(C)S(=O)(=O)c1ccc(F)cc1`, the cytotoxicity call in test [1] and in test [2] was “inactive” in each case. Besides, the growth inhibition call in test [3] is “inactive”.
Consider `CN(C)CC(=O)N[C@@H]1CC[C@H](CCn2cc(CN(C)C)nn2)O[C@H]1CO`, for which the cytotoxicity call in test [1] and in test [2] was “inactive” throughout. The growth inhibition call in test [3] was “inactive”.
As for `CCS(=O)(=O)N1CC[C@]2(CC1)CN(Cc1ccc(cc1)OC)[C@H](CO)c1c2c2ccc(cc2n1C)OC`, the cytotoxicity call in test [1] and in test [2] was “inactive” each time. The growth inhibition call in test [3] is “inactive”.
For `C[C@@H]1CN([C@H](C)CO)C(=O)c2cccc(NS(=O)(=O)c3cccs3)c2O[C@H]1CN(C)Cc1ccc(Cl)c(Cl)c1`, the cytotoxicity call in test [1] and in test [2] was “inactive” each time. In addition, the growth inhibition call in test [3] is “inactive”.
In the case of `C=c1cc(C)cc(C)c1=C1NN=C(N)S1`, the cytotoxicity call in test [1] and in test [2] was “inactive” in each case. Besides, in test [3], the growth inhibition call is “inactive”.
For the molecule `O=C(O)C1CCC1`, the cytotoxicity call in test [1] and in test [2] was “inactive” in each case. The growth inhibition call in test [3] was “inactive”.
As to `OC[C@H]1O[C@H]([S][Au])[C@H](O)[C@@H](O)[C@@H]1O`, the cytotoxicity call in test [1] was “inactive”. In test [2], the cytotoxicity call is “active”. Moreover, the growth inhibition call in test [3] is “inactive”.
In the case of `C[C@@H]1CN([C@H](C)CO)C(=O)c2cc(NS(=O)(=O)c3ccccc3)ccc2O[C@@H](C)CCCCO[C@H]1CN(C)C(=O)Nc1ccc2c(c1)OCO2`, the cytotoxicity call in test [1] and in test [2] was “inactive” each time. For the same molecule, the growth inhibition call in test [3] is “inactive”.
Take `C[C@@H]1CCCCO[C@@H](CN(C)C(=O)Nc2cccc3ccccc23)[C@H](C)CN([C@@H](C)CO)C(=O)c2cc(NC(=O)Nc3ccc(C(F)(F)F)cc3)ccc2O1`: the cytotoxicity call in test [1] and in test [2] was “inactive” each time. Besides, in test [3], the growth inhibition call was “inactive”.
Regarding `C[C@@H]1CCCCO[C@H](CN(C)C(=O)Nc2ccc(F)cc2)[C@@H](C)CN([C@@H](C)CO)C(=O)c2cc(NS(=O)(=O)c3cccs3)ccc2O1`, the cytotoxicity call in test [1] and in test [2] was “inactive” in each case. In addition, the growth inhibition call in test [3] was “inactive”.
On to `Cc1cc(C(=O)Nc2cccc3c2O[C@H](CN(C)S(=O)(=O)c2ccc(Cl)cc2)[C@H](C)CN([C@@H](C)CO)C3=O)n(C)n1`, for which the cytotoxicity call in test [1] and in test [2] was “inactive” throughout. Besides, the growth inhibition call in test [3] is “inactive”.
For `C[C@@H]1CCCCO[C@@H](CN(C)S(=O)(=O)c2cccs2)[C@@H](C)CN([C@H](C)CO)C(=O)c2cc(NC(=O)CCCCCC(=O)Nc3ccccc3N)ccc2O1`, the cytotoxicity call in test [1] and in test [2] was “inactive” each time. Moreover, in test [3], the growth inhibition call was “inactive”.
For the molecule `C[C@@H]1CN([C@@H](C)CO)S(=O)(=O)c2ccc(Br)cc2O[C@H]1CN(C)C(=O)c1ccccc1F`, the cytotoxicity call in test [1] and in test [2] was “inactive” throughout. In test [3], the growth inhibition call is “inactive”.
With `Cc1noc(C)c1S(=O)(=O)Nc1cccc2c1O[C@@H](CN(C)S(=O)(=O)c1ccc(Cl)cc1)[C@@H](C)CN([C@H](C)CO)C2=O`, the cytotoxicity call in test [1] and in test [2] was “inactive” throughout. In addition, in test [3], the growth inhibition call is “inactive”.
In the case of `CCOC(=O)C[C@H]1CCCNC1`, the cytotoxicity call in test [1] and in test [2] was “inactive” throughout. The growth inhibition call in test [3] is “inactive”.
Take `C[C@@H]1CN([C@@H](C)CO)C(=O)Cc2cc(NC(=O)C3CCCCC3)ccc2O[C@@H]1CN(C)Cc1ccc(-c2ccccc2)cc1`: the cytotoxicity call in test [1] is “inactive”. Further, the cytotoxicity call in test [2] is “active”. Further, in test [3], the growth inhibition call is “inactive”.
Turning to `C[C@H]1CN([C@@H](C)CO)C(=O)c2cccc(NS(C)(=O)=O)c2O[C@@H]1CN(C)Cc1ccc(C(=O)O)cc1`, the cytotoxicity call in test [1] and in test [2] was “inactive” each time. The growth inhibition call in test [3] was “inactive”.
Take `CNCC(O)C(O)C(O)C(O)CO` (centres undefined): the cytotoxicity call in test [1] and in test [2] was “inactive” in each case. The growth inhibition call in test [3] was “inactive”.
Turning to `Cc1noc(C)c1S(=O)(=O)N(C)C[C@@H]1OCCCC[C@@H](C)Oc2ccc(NS(C)(=O)=O)cc2C(=O)N([C@H](C)CO)C[C@@H]1C`, the cytotoxicity call in test [1] and in test [2] was “inactive” each time. In addition, in test [3], the growth inhibition call was “inactive”.
For the molecule `CC(C)CC#Cc1ccc2c(c1)O[C@@H](CN(C)Cc1cncnc1)[C@H](C)CN([C@H](C)CO)S2(=O)=O`, the cytotoxicity call in test [1] and in test [2] was “inactive” each time. Also, the growth inhibition call in test [3] is “inactive”.
Regarding `CC(=O)N1CCN(C)CC1`, the cytotoxicity call in test [1] and in test [2] was “inactive” in each case. Further, the growth inhibition call in test [3] is “inactive”.
For `O=c1[nH]c(=O)n([C@@H]2O[C@H](CO)[C@@H](O)[C@H]2O)cc1Br`, the cytotoxicity call in test [1] and in test [2] was “inactive” each time. The growth inhibition call in test [3] is “inactive”.
As to `COc1ccc(C#Cc2cnc3c(c2)C(=O)N([C@H](C)CO)C[C@H](C)[C@H](CN(C)S(=O)(=O)c2cccc(F)c2)O3)cc1OC`, the cytotoxicity call in test [1] and in test [2] was “inactive” each time. Also, the growth inhibition call in test [3] was “inactive”.
For the molecule `C[C@H](CO)N1C[C@H](C)[C@H](CN(C)Cc2ccc(C(=O)Nc3ccccc3N)cc2)Oc2c(NC(=O)C3CCCCC3)cccc2C1=O`, the cytotoxicity call in test [1] and in test [2] was “inactive” throughout. For the same molecule, the growth inhibition call in test [3] was “inactive”.
On to `C[C@H]1CN([C@@H](C)CO)C(=O)c2cc(NS(=O)(=O)c3cn(C)cn3)ccc2O[C@H]1CN(C)CC1CC1`, for which the cytotoxicity call in test [1] and in test [2] was “inactive” each time. In addition, the growth inhibition call in test [3] is “inactive”.

Values taken from the antibiotic and cytotoxicity screens of Wong et al. (2023).
